These results are taken from publication PMC4336329 (PLoS ONE, 2015).

Molecules are shown by their SMILES. Screen size: about 310,000 compounds; about 2,200 (0.71%) showed an effect of 50% or more. The effect is printed as a negative number. This is one part of the list.

Sequence of human ether-à-go-go-related gene (hERG) potassium channel (Q12809 whole entry, looked up): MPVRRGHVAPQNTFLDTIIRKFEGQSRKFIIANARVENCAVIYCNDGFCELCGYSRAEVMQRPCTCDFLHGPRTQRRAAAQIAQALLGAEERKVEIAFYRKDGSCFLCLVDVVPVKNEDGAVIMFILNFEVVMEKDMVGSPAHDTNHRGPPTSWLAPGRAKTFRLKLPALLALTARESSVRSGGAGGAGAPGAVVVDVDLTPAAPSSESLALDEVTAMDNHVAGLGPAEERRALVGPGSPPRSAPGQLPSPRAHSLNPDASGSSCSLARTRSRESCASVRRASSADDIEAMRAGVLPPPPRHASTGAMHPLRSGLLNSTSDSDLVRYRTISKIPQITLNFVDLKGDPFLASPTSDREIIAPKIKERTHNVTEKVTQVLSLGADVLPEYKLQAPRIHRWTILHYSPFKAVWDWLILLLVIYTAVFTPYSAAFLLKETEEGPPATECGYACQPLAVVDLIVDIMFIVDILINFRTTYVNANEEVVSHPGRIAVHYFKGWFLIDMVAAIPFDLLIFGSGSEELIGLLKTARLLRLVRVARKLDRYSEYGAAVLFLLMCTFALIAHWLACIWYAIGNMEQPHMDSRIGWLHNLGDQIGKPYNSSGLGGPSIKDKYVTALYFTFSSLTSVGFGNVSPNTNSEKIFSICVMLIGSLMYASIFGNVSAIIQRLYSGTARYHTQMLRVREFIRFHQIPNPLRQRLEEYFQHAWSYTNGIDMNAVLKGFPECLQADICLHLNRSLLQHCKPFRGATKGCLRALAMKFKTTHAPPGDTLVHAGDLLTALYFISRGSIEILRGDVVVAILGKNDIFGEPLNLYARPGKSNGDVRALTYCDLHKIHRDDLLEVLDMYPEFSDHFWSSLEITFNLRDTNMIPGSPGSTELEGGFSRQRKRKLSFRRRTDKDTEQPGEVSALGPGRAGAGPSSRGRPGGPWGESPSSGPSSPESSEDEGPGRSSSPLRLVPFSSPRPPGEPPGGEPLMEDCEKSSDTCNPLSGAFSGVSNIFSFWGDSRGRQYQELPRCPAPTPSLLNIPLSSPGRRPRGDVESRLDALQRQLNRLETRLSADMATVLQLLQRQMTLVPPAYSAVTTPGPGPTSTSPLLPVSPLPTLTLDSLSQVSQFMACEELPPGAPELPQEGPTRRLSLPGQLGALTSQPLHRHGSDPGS

This assay concerns the target human ether-à-go-go-related gene (hERG) potassium channel (human, UniProt Q12809). Kind of assay: primary screen, population patch clamp on CHO cells stably expressing hERG.
On to `CCCCOCCCNC(=O)C1c2ccccc2Oc2ccccc21`, for which the “hERG current change (%, negative = inhibition) at 1uM” value is 12.9%.

As for `O=C(COc1ccc(Br)cc1Br)NC(=S)Nc1cccc(CO)c1`, the “hERG current change (%, negative = inhibition) at 1uM” value was 5.94%. `COc1ccc(CNC(=O)NC2CCCCC2)cc1`: the “hERG current change (%, negative = inhibition) at 1uM” value worked out at 6.71%. With `COCCN(C(=O)COC(=O)Cc1ccccc1)c1c(N)n(Cc2ccccc2)c(=O)[nH]c1=O`, the “hERG current change (%, negative = inhibition) at 1uM” value was found to be 9.85%.

Take `CSCC[C@H](NC(=O)c1cccnc1)c1nnc2ccccn12`: the “hERG current change (%, negative = inhibition) at 1uM” value is reported as -2.48%. The same measure for `COc1ccc([C@H]2CC(=O)C=C(c3ccc4ccccc4c3)C2)cc1OC`: 13%; for `Fc1ccc(C2=CCN(C(c3cccs3)c3nnnn3CCc3ccccc3)CC2)cc1` (centres unmarked): 16.3%. Turning to `CCC1CCCCN1CCCNC(=O)C1CCCN(c2ncnc3c2nc2n3CCCCC2)C1` (centres unmarked), the “hERG current change (%, negative = inhibition) at 1uM” value came to 14.4%. With `CC(C)(C)NC(=O)NC(=O)COC(=O)COc1ccc2c(c1)CCC2`, the “hERG current change (%, negative = inhibition) at 1uM” value is on record as -7.36%. For the compound `CC12CN3CCN(CC(C3)/C1=N/NC(=O)Nc1ccccc1)C2`, the “hERG current change (%, negative = inhibition) at 1uM” value was 19.6%. Consider `CCN(CC(=O)Nc1c(F)cccc1F)C(=O)CCOc1ccc(C)cc1`, for which the “hERG current change (%, negative = inhibition) at 1uM” value stood at 2.42%. The figure for `COC(=O)c1sccc1NC(=O)Nc1cccc(Cl)c1Cl` is 11%. The figure for `Cc1cc(C)c(NC(=O)CN2CCCCCC2)c(C)c1` is 8.43%. On to `COc1ccc(NC(=O)CSc2ccc3c(c2)OCCO3)cc1OC`, for which the “hERG current change (%, negative = inhibition) at 1uM” value stood at 5.63%.

For the compound `Cc1ccc(CNC(=O)CNS(=O)(=O)c2ccc3c(c2)C(C)(C)C(=O)N3C)cc1`, the “hERG current change (%, negative = inhibition) at 1uM” value came to 8.57%. The figure for `CC1CCN(C(=O)C2CCC(C)(C(=O)O)C2(C)C)CC1` (centres unmarked) is 10.2%; for `CCCCN1C(=O)N(C)C2NC(=S)NC21` (centres unmarked) it is 13.4%; for `O=C([C@H](Cc1ccccc1)N1C(=O)c2ccccc2C1=O)N1CCOCC1` it is 10.9%.

For the compound `COCCN(Cc1cc2cc3c(cc2nc1Cl)OCO3)C(=O)Nc1ccc(F)cc1`, the “hERG current change (%, negative = inhibition) at 1uM” value came to 9.44%. On to `Cn1nc(C(=O)OCC(=O)Nc2ccc3ccccc3c2)c2ccccc2c1=O`, for which the “hERG current change (%, negative = inhibition) at 1uM” value worked out at 2.42%. The figure for `FC(F)(F)c1cccc(Oc2nc(-c3ccccc3)nnc2C(F)(F)F)c1` is -5.31%. Regarding `NC(=NC(=O)c1ccc(OC(F)(F)F)cc1)c1ccc(C(F)(F)F)cn1`, the “hERG current change (%, negative = inhibition) at 1uM” value stood at 10.5%. With `Cc1cc(OC(C)C(=O)NCCCN2CCOCC2)ccc1Cl` (centres unmarked), the “hERG current change (%, negative = inhibition) at 1uM” value was -24.7%. The figure for `COC(=O)c1c(C)cc(C)n2c1nc1ccccc12` is -2.41%. The figure for `CCN(CC(=O)NCc1ccc(Cl)cc1)C(=O)COc1ccc(Cl)cc1Br` is -6.44%. Consider `COC(=O)C(C)Sc1nc(NCc2ccccc2)nc(N(C)C)n1` (centres unmarked), for which the “hERG current change (%, negative = inhibition) at 1uM” value is recorded as 3.93%. For `Cc1ccc(-n2nnnc2CS(=O)(=O)c2ccccc2)c(C)c1`, the “hERG current change (%, negative = inhibition) at 1uM” value was 17.6%. For `CCN(CC)CCN=C1CCCc2ccccc2N1`, the “hERG current change (%, negative = inhibition) at 1uM” value is 1.06%.

Consider `CN(CC(=O)Nc1ccc(N2CCOCC2)cc1)C(=O)CCNC(=O)c1ccc(Br)cc1`, for which the “hERG current change (%, negative = inhibition) at 1uM” value is reported as 10.3%. The same measure for `Cc1ccc(C(=O)N/N=C(/CC(=O)c2cccs2)C(F)(F)F)cc1`: 8.14%. Take `Cc1ccc(NC(=O)C2CCCN(S(=O)(=O)c3cnc[nH]3)C2)cc1F` (centres unmarked): the “hERG current change (%, negative = inhibition) at 1uM” value came out at 8.33%. For `Cn1ccc(C(=O)NC(=S)N2CCSCC2)n1`, the “hERG current change (%, negative = inhibition) at 1uM” value stood at 4.99%. Regarding `O=C(CN1CCN(c2ccccc2F)CC1)c1ccc2c(c1)OCO2`, the “hERG current change (%, negative = inhibition) at 1uM” value was 9.85%. The same measure for `COc1ccccc1Cn1c(=S)[nH]c2cc(C(=O)NCC3CCCO3)ccc2c1=O` (centres unmarked): 15.9%; for `Cc1onc(-c2c(Cl)cccc2Cl)c1C(=O)Nc1nccs1`: 13.7%; for `CCOC(=O)N1CCN(C2=C(NS(=O)(=O)c3ccc(C)cc3)C(=O)c3ccccc3C2=O)CC1`: 29%. On to `CCn1c(SCC(=O)NC2CC2)nnc1-c1csc(C)c1`, for which the “hERG current change (%, negative = inhibition) at 1uM” value amounted to 17%. As to `Cc1cccc(S(=O)(=O)Nc2nc3ccccc3nc2NCC2CCCO2)c1` (centres unmarked), the “hERG current change (%, negative = inhibition) at 1uM” value is recorded as 14%. As for `CC[C@@H](C)[C@H](NC(=O)OC(C)(C)C)c1nnc(S(=O)(=O)Cc2cc(C)ccc2C)o1`, the “hERG current change (%, negative = inhibition) at 1uM” value is 12.2%. The same measure for `O=C(N/N=C/c1ccc[nH]1)c1ccccc1OCc1ccccc1Cl`: 9.26%; for `CCOC(=O)N1CCN(C(=O)CS(=O)(=O)c2cn(Cc3ccccc3C)c3ccccc23)CC1`: 6.36%; for `COC(=O)C1=C(CS(=O)(=O)c2cc(OC)ccc2OC)NC(=O)NC1c1ccc(O)c(OC)c1` (centres unmarked): 0.397%. As to `Cc1ccc(CNC(=O)C2CCN(c3nnc(N4CCCC4=O)s3)CC2)cc1`, the “hERG current change (%, negative = inhibition) at 1uM” value is listed as 12.5%. As to `CCn1c(Cc2ccccc2)nnc1SCc1ccc([N+](=O)[O-])cc1`, the “hERG current change (%, negative = inhibition) at 1uM” value is -8.03%. The same measure for `CC(=O)Nc1ccc(OCC(O)Cn2c(C)nc3ccccc32)cc1` (centres unmarked): 4.43%; for `FC(F)(F)c1ccc(CN2C[C@@H]3C(c4ccc(C(F)(F)F)cc4)C4(c5cccnc5)CC3(C4)[C@H]2c2ccccc2)cc1` (some centres unmarked): 17.1%. Take `Cc1ccc(N=Cc2c(O)[nH]c3ccccc23)c([N+](=O)[O-])c1`: the “hERG current change (%, negative = inhibition) at 1uM” value is -0.0231%. Take `Cc1cc(NC(=O)Cc2ccc(Br)cc2)no1`: the “hERG current change (%, negative = inhibition) at 1uM” value stood at 15.5%. As to `CCOC(=O)c1ccc(NC(=S)N(Cc2cccnc2)Cc2ccco2)cc1`, the “hERG current change (%, negative = inhibition) at 1uM” value was 7.3%.

`CCOc1ccc(NC(=S)NCCN2CCN(Cc3ccccc3)CC2)cc1`: the “hERG current change (%, negative = inhibition) at 1uM” value was -34.2%. As for `O=C(O)Cc1csc(-c2cccc(Oc3ccccc3)c2)n1`, the “hERG current change (%, negative = inhibition) at 1uM” value is recorded as 4.68%.

For `O=C(CSc1nnc2ccccn12)Nc1ccccc1C(=O)NC1CC1`, the “hERG current change (%, negative = inhibition) at 1uM” value is recorded as 7.28%.

`O=C(NC(=S)Nc1ccc(C(F)(F)F)cc1)c1csnn1`: the “hERG current change (%, negative = inhibition) at 1uM” value was found to be 10.2%.

Consider `CCN1CCN(C(=S)Nc2cccc([N+](=O)[O-])c2)CC1`, for which the “hERG current change (%, negative = inhibition) at 1uM” value was -1.13%. The same measure for `O=C(NCCOC(=O)c1ccc(Cl)c(S(=O)(=O)N2CCCCC2)c1)c1ccncc1`: -0.852%. As to `O=C(N/N=C/c1ccncc1)c1cc2c(ccc3ccccc32)o1`, the “hERG current change (%, negative = inhibition) at 1uM” value was 12.4%.
